# In the supplement of paper PMC7826260:
# Some of the results follow. Viral Rep nickase domains cut single-stranded DNA in vitro (1 h at 37 °C, 3 µM enzyme); the outer parts of the 90-letter strands are left off. Uncut reads are compared with the no-enzyme pool on a log2 scale; strong cutting gives strongly negative numbers. There is no active / inactive call. The scaling is to total reads, so uncut sequences can rise above 0 when many others are cut.
# System: T1, Rep nickase domain of tomato golden mosaic virus
# T1 sequence (residues 1-124, tag not shown): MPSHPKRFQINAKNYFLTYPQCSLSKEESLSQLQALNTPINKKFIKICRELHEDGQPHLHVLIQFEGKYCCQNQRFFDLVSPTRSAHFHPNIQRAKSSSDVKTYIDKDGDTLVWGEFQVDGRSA
# Assay: uncleaved DNA left, log2 of reads against the no-enzyme library (log2 ratio); higher = less cleavage (more negative = more Rep cleavage of the k-mer); sequences stand for … in CTCGTCCG…ACCGGAGA
# Experimental: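 A pool of 90-nt single-stranded DNAs with seven random bases just before the constant AC of the nick site (name = the seven bases) was cut by 3 µM recombinant His6-SUMO-tagged Rep nickase domain (300 nM DNA, 50 mM HEPES pH 8.0, 50 mM NaCl, 1 mM MnCl2, 1 h, 37 °C, three replicates). Uncut DNA was amplified and sequenced.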
row,Sequence,uncleaved DNA left (log2)
1,TTCTATC,-0.181
2,CCAGATC,0.081
3,TGCTGTG,-0.0907
4,CCAGGCG,0.0194
5,CGCAGTG,0.0901
6,GGGAATT,-0.11
7,AAGGACC,0.0564
8,GAGAGTA,0.0484
9,TTGTATC,-0.0129
10,TATCCGC,-0.0334
11,GGGGACG,0.154
12,ATTCGCA,-0.196
13,CACGCAA,0.013
14,ATCGCCC,-0.0723
15,CGGTCAA,0.0417
16,CTCGTGC,-0.246
17,GCACTTC,-0.151
18,CATTAAA,0.132
19,ACCCATA,0.137
20,AGCGTCG,0.0653

row,Sequence,uncleaved DNA left (log2)
1,TAATTTC,-3.92
2,TTGTCAC,-0.157
3,AAAGACT,0.13
4,GATCGCT,-0.195
5,CGCTTTC,-0.0629
6,GACGAAG,0.0885
7,AGAAGAT,0.141
8,CATAGCT,-0.028
9,GAGGTTG,0.0993
10,TACAAGA,-0.00963
11,TGTGCAC,0.104
12,ATTTGGG,0.104
13,AGCTGCT,-0.0179
14,ACGACAC,0.0224
15,CAATGAT,-3.53
16,TTTTACA,-0.0303
17,CCTCTAG,0.145
18,CATGCTC,-0.0845
19,GAACACC,-0.0441
20,AGCTTTA,0.0891
